Laboratory results as given in the supplement of paper PMC3334620.
In all, about 33,000 sequences were measured (“E-score (-0.5 to 0.5)”: median about -0.013, highest 2% from about 0.3 on). The list shows a part of the results.

The sequences below were run against T1, Msn1 (UniProt P22148) (assay: PBM E-score (8-mer binding enrichment) (E-score (-0.5 to 0.5)); higher = stronger / more preferred TF binding; most listed sequences are background and not binding sites). Conditions: protein concentration: 200 nM; construct: GST-full length.
T1 sequence: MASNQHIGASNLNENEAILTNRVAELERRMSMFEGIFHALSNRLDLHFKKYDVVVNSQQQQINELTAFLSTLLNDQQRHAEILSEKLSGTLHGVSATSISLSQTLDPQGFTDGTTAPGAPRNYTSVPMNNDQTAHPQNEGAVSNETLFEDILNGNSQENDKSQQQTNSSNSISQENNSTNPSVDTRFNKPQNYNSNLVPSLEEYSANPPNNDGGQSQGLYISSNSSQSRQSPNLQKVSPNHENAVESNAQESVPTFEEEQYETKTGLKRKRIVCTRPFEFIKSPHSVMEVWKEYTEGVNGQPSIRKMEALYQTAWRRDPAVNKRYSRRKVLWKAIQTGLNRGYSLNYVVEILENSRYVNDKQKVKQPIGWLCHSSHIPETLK
Outline: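 Each ungapped eight-base word and its reverse complement, pooled, received an E-score from the Universal PBM Analysis Suite. Underlying scans, normalised with masliner, recorded fluorescent anti-GST bound to GST-tagged yeast transcription factors. These were applied at about 100-200 nM to universal all-10-mer Agilent arrays double-stranded by primer extension.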

In order of falling “PBM E-score” value:
1. GGACACAA  0.462
2. CAAGACAA  0.367
3. ATATTAAA  0.344
4. TTGTACAA  0.337
5. CTGGTACA  0.329
6. GGATGTCA  0.305
7. AAGTCCTG  0.292
8. GCATGTAC  0.291
9. AATTTATC  0.272
10. AAAGTACA  0.272
11. GAGACATC  0.265
12. ATGTACTG  0.247
13. GTCCAATA  0.231
14. CGTATAGA  0.207
15. ATTAATAC  0.202
16. CCTGACAA  0.202
17. ATTGCGAC  0.199
18. ACAACGAC  0.189
19. AAAAATAG  0.189
20. CAAAACAG  0.184
21. AAGAAAAT  0.178
22. ACTTTCAA  0.171
23. ACGCGGAC  0.17
24. ACTTAGAC  0.16
25. ACTGTAAG  0.157
26. TCTCGCAA  0.149
27. GCGACAGA  0.144
28. TGTTAAAA  0.138
29. GACGTAAA  0.137
30. GGAGAGAC  0.134
31. GTCGTAGA  0.133
32. CACGGAAC  0.132
33. TACGGCAA  0.127
34. AATCGGAG  0.122
35. ATTCCGAA  0.121
36. GCATCTAA  0.12
37. CGAACGAC  0.118
38. GATAAGTA  0.118
39. CGGCGCGA  0.109
40. ACATCCAC  0.106
41. ACCTGTAC  0.102
42. TCGTAGCA  0.101
43. CTACAAAA  0.0933
44. AATCTTTG  0.0922
45. CGTCCTTC  0.0919
46. CAGTCGCG  0.0907
47. GAAGTCGA  0.0876
48. TCTAGCAA  0.0862
49. GCTGGTAC  0.0835
50. CTCGTAAG  0.0834
51. GACTACTA  0.0782
52. CTAGATAC  0.0746
53. GGCACTAA  0.0669
54. CCTAGGCA  0.0667
55. ACCTGGAC  0.0631
56. ACTAGCAA  0.0623
57. ACCCGATA  0.0622
58. CGGCAAGA  0.0609
59. GAGACGCA  0.06
60. AACTGTTG  0.0585
61. AGACCTCG  0.0578
62. ACTTAAAT  0.0531
63. CAGTGAAC  0.052
64. CGAGTGCA  0.0509
65. GATAAGAC  0.0489
66. AAAACTAT  0.0462
67. GAGTGTTA  0.0458
68. CGCAATCA  0.0447
69. AATGGTAC  0.039
70. AGGCGGGA  0.0375
71. ACCGGATG  0.0328
72. GTAACCAA  0.0319
73. CATCATAG  0.0295
74. GCCTGCGC  0.0271
75. ACGTTAGC  0.0261
76. ATTCCAGG  0.0135
77. ATAAAGAT  0.0119
78. ATGGTTTG  0.00789
79. AGTAAAGA  0.00721
80. AAAAAGGA  0.00346
81. ATAGCAGA  0.00241
82. ATGGCTAC  0.00174
83. CGAAGTAG  0.00116
84. CCACACAA  -0.00266
85. AAGCGATT  -0.00343
86. AGCTTATC  -0.00508
87. ATGGGAAC  -0.00579
88. CTTTACGA  -0.00672
89. ACTTAGTC  -0.0101
90. ATCACTGG  -0.0113
91. ACACCGGA  -0.0117
92. TATAGTGA  -0.0121
93. CAGTAAAC  -0.0138
94. AGCTTGTA  -0.0143
95. GTGTTAAC  -0.0145
96. CGTGGTGA  -0.0149
97. ACTTTGAT  -0.0153
98. AGTAAGCA  -0.0171
99. CCCGTCCA  -0.0207
100. TAAGGTGA  -0.0308
101. CGGTACCA  -0.0349
102. GCGGTGGA  -0.0394
103. GCCCTACA  -0.04
104. ATGCTCAA  -0.0471
105. AGGTAAAA  -0.0519
106. CTATGCGC  -0.0539
107. CGACGCGA  -0.0544
108. ATCTTGCG  -0.0566
109. GCTCTCAA  -0.0581
110. GATCCGCA  -0.0581
111. CGCCCACC  -0.0582
112. AACCCCAA  -0.06
113. CCGTGAGA  -0.0625
114. CTAGGTCC  -0.066
115. CAAGCGTC  -0.0696
116. GCAGCTGA  -0.0734
117. TCTGATCA  -0.074
118. AGGCGGAT  -0.0793
119. CTCCCGAG  -0.0818
120. CGGCTGAG  -0.0823
121. ACGCAGTA  -0.0834
122. CAGGTGTA  -0.0913
123. CATAGCAA  -0.0939
124. GCTTTTCC  -0.0951
125. AAGCCGCA  -0.0983
126. CCATAGTC  -0.1
127. CCTTACTC  -0.101
128. GGGGACTA  -0.103
129. CAACCTTC  -0.109
130. AGCCGTCC  -0.111
131. CTCTGCTA  -0.112
132. CATGCGGG  -0.114
133. AGGATGAT  -0.115
134. GGTGAGCA  -0.119
135. CTTGTAGC  -0.121
136. GGCTCAGA  -0.122
137. GCTGCGTA  -0.124
138. CAGGTACG  -0.126
139. CCACGCCA  -0.128
140. AGCCAAGC  -0.129
141. GCGCGGAA  -0.129
142. GAAAGGCC  -0.136
143. CCGGGTCG  -0.141
144. GAAGGGCC  -0.143
145. CTATAAGC  -0.144
146. AGCCACCG  -0.162
147. CCTACCAC  -0.163
148. GAACACCC  -0.165
149. AGCTCCTA  -0.165
150. GGCATCCC  -0.167
151. GAGCATCA  -0.171
152. GGGAACCA  -0.173
153. AGAAAGGC  -0.18
154. AGCCCACT  -0.182
155. TGCTCCCA  -0.191
156. ATAGCGGG  -0.192
157. CCCTATCG  -0.2
158. GGGTGCCA  -0.202
159. CATCCAGA  -0.205
160. GGTGCTGA  -0.205
161. AGGCTGTC  -0.209
162. GAGGGCTA  -0.211
163. CACTTCTC  -0.214
164. CACGTTTC  -0.22
165. ACGGTGCT  -0.25
166. GAGGCCTC  -0.266
167. ACGCAGGC  -0.278
168. GATTCCCC  -0.281
169. CCTGAAGC  -0.288
170. CCCGCATC  -0.309
171. CCAGGGTC  -0.315
172. AGCCCCCT  -0.393
